From paper PMC9932110 (2023)

Molecular target: the molecule itself
Test: SEC-MALS

B1: RanBP9-Twa1 complex (protein)
chain 1: MSGQPPPPPPQQQQQQQQLSPPPPAALAPVSGVVLPAPPAVSAGSSPAGSPGGGAGGEGLGAAAAALLLHPPPPPPPATAAPPPPPPPPPPPASAAAPASGPPAPPGLAAGPGPAGGAPTPALVAGSSAAAPFPHGDSALNEQEKELQRRLKRLYPAVDEQETPLPRSWSPKDKFSYIGLSQNNLRVHYKGHGKTPKDAASVRATHPIPAACGIYYFEVKIVSKGRDGYMGIGLSAQGVNMNRLPGWDKHSYGYHGDDGHSFCSSGTGQPYGPTFTTGDVIGCCVNLINNTCFYTKNGHSLGIAFTDLPPNLYPTVGLQTPGEVVDANFGQHPFVFDIEDYMREWRTKIQAQIDRFPIGDREGEWQTMIQKMVSSYLVHHGYCATAEAFARSTDQTVLEELASIKNRQRIQKLVLAGRMGEAIETTQQLYPSLLERNPNLLFTLKVRQFIEMVNGTDSEVRCLGGRSPKSQDSYPVSPRPFSSPSMSPSHGMNIHNLASGKGSTAHFSGFESCSNGVISNKAHQSYCHSNKHQSSNLNVPELNSINMSRSQQVNNFTSNDVDMETDHYSNGVGETSSNGFLNGSSKHDHEMEDCDTEMEVDSSQLRRQLCGGSQAAIERMIHFGRELQAMSEQLRRDCGKNTANKKMLKDAFSLLAYSDPWNSPVGNQLDPIQREPVCSALNSAILETHNLPKQPPLALAMGQATQCLGLMARSGIGSCAFATVEDYLH
chain 2: [about 250 residues left out]
Kd: 1800 nM
